# Some of the results follow.
# B1: GS7807P-bth-537-23-537 (Bacteroides thetaiotaomicron) (protein)
# chain: NYENINSNPYEAPDLSADGYALGSAMNNLAGCVVSPDVNTAQFTDCLLGGPLGGYFADSNAGFTETISNFNPKDDWSRVFLKSDKIIPTLYSNLTQVKLVSQNTNDPVPYAIAQVIKVAAMHRVTDAFGPIPYSQIGANGEIATPYDSQEVTYNTFFDELNAAIATLNENSNEQLVPTADYIYKGDVKKWIRFANSLKLRLAIRIAYANPVKAQQMAEEAVNPANGGVIESNADNATWNYFETSQNPIYVATRYNQVQTSDHGGVPCLTGGDTHAAADIICYMNGYKDNRREKFFTKSEWAGQDYVGMRRGIVIPELKTTGHKYSGVNIAPTSPLYWMNAAEVAFLRAEGQAVFNFSMGGTAESFYNQGIRLSFEQWGADGVEDYLKDDVNKPTAYTDPAGTNTYQNALSNITIKWNDSADKEEKQERIIVQKWIANWQLGNEAWADFRRTGYPKLIPVKENKSGGVVDSEKGARRMPYPLDEFVSNKANVEYAIANYLHGADNMATDVWWASKK
# How the values were obtained:
# Test in all cases: glycan array binding signal (z-score within array); higher = stronger binding
# Details in all cases: glycan notation: IUPAC condensed, linker removed
# [1] = target: Fuc(a1-2)Gal
# Method in brief: (§1)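 Glycan array data were curated from 3228 arrays in the Consortium for Functional Glycomics database and kept only where the protein sequence was available. Glycan names were converted to IUPAC-condensed notation, and columns mapping to the same glycan were averaged. The binding signal is a within-array Z-score, averaged across arrays of the same protein sequence at different concentrations or buffers and across linkers. Negative Z-scores can be read as non-binding.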
# [2] = target: Fuc(a1-2)Gal(b1-3)GalNAc
# Method in brief: as §1
# [3] = target: Fuc(a1-2)Gal(b1-3)GalNAc(a1-3)[Fuc(a1-2)]Gal(b1-4)Glc
# Method in brief: as §1
# [4] = target: Fuc(a1-2)Gal(b1-3)GalNAc(a1-3)[Fuc(a1-2)]Gal(b1-4)GlcNAc
# Method in brief: as §1
# [5] = target: Fuc(a1-2)Gal(b1-3)GalNAc(b1-3)Gal
# Method in brief: as §1
# [6] = target: Fuc(a1-2)Gal(b1-3)GalNAc(b1-3)Gal(a1-4)Gal(b1-4)Glc
# Method in brief: as §1
# [7] = target: Fuc(a1-2)Gal(b1-3)GalNAc(b1-4)[Neu5Ac(a2-3)]Gal(b1-4)Glc
# Method in brief: as §1
# [8] = target: Fuc(a1-2)Gal(b1-3)GlcNAc
# Method in brief: as §1
# [9] = target: Fuc(a1-2)Gal(b1-3)GlcNAc(b1-2)Man(a1-3)[Fuc(a1-2)Gal(b1-3)GlcNAc(b1-2)Man(a1-6)]Man(b1-4)GlcNAc(b1-4)GlcNAc
# Method in brief: as §1
# [10] = target: Fuc(a1-2)Gal(b1-3)GlcNAc(b1-2)Man(a1-3)[Fuc(a1-2)Gal(b1-3)GlcNAc(b1-2)Man(a1-6)]Man(b1-4)GlcNAc(b1-4)[Fuc(a1-6)]GlcNAc
# Method in brief: as §1
# [11] = target: Fuc(a1-2)Gal(b1-3)GlcNAc(b1-3)Gal(b1-4)Glc
# Method in brief: as §1
# [12] = target: Fuc(a1-2)Gal(b1-3)GlcNAc(b1-3)GalNAc
# Method in brief: as §1
# [13] = target: Fuc(a1-2)Gal(b1-3)GlcNAc(b1-3)[Fuc(a1-2)Gal(b1-3)GlcNAc(b1-6)]GalNAc
# Method in brief: as §1
# [14] = target: Fuc(a1-2)Gal(b1-3)GlcNAc(b1-3)[Gal(b1-4)GlcNAc(b1-6)]Gal(b1-4)Glc
# Method in brief: as §1
# [15] = target: Fuc(a1-2)Gal(b1-3)GlcNAc(b1-3)[Neu5Ac(a2-6)Gal(b1-4)GlcNAc(b1-6)]Gal(b1-4)Glc
# Method in brief: as §1
# [16] = target: Fuc(a1-2)Gal(b1-3)GlcNAc6S
# Method in brief: as §1
# [17] = target: Fuc(a1-2)Gal(b1-3)[Fuc(a1-4)]GlcNAc
# Method in brief: as §1
# [18] = target: Fuc(a1-2)Gal(b1-3)[Fuc(a1-4)]GlcNAc(b1-2)Man(a1-3)[Fuc(a1-2)Gal(b1-3)[Fuc(a1-4)]GlcNAc(b1-2)Man(a1-3)]Man(b1-4)GlcNAc(b1-4)GlcNAc
# Method in brief: as §1
# [19] = target: Fuc(a1-2)Gal(b1-3)[Fuc(a1-4)]GlcNAc(b1-2)Man(a1-3)[Fuc(a1-2)Gal(b1-3)[Fuc(a1-4)]GlcNAc(b1-2)Man(a1-6)]Man(b1-4)GlcNAc(b1-4)[Fuc(a1-6)]GlcNAc(b1-4)[Fuc(a1-6)]GlcNAc
# Method in brief: as §1
# [20] = target: Fuc(a1-2)Gal(b1-3)[Fuc(a1-4)]GlcNAc(b1-3)[Fuc(a1-3)[Gal(b1-4)]GlcNAc(b1-6)]Gal(b1-4)Glc
# Method in brief: as §1
# [21] = target: Fuc(a1-2)Gal(b1-3)[Fuc(a1-4)]GlcNAc(b1-3)[Gal(b1-4)GlcNAc(b1-6)]Gal(b1-4)Glc
# Method in brief: as §1
# [22] = target: Fuc(a1-2)Gal(b1-4)Glc
# Method in brief: as §1
# [23] = target: Fuc(a1-2)Gal(b1-4)Glc6S
# Method in brief: as §1
# [24] = target: Fuc(a1-2)Gal(b1-4)GlcNAc
# Method in brief: as §1
# [25] = target: Fuc(a1-2)Gal(b1-4)GlcNAc(b1-2)Man
# Method in brief: as §1
# [26] = target: Fuc(a1-2)Gal(b1-4)GlcNAc(b1-2)Man(a1-3)[Fuc(a1-2)Gal(b1-4)GlcNAc(b1-2)Man(a1-6)]Man(b1-4)GlcNAc(b1-4)GlcNAc
# Method in brief: as §1
# [27] = target: Fuc(a1-2)Gal(b1-4)GlcNAc(b1-2)Man(a1-3)[Fuc(a1-2)Gal(b1-4)GlcNAc(b1-2)Man(a1-6)]Man(b1-4)GlcNAc(b1-4)[Fuc(a1-6)]GlcNAc
# Method in brief: as §1
# [28] = target: Fuc(a1-2)Gal(b1-4)GlcNAc(b1-2)[Fuc(a1-2)Gal(b1-4)GlcNAc(b1-4)]Man(a1-3)[Fuc(a1-2)Gal(b1-4)GlcNAc(b1-2)Man(a1-6)]Man(b1-4)GlcNAc(b1-4)GlcNAc
# Method in brief: as §1
# [29] = target: Fuc(a1-2)Gal(b1-4)GlcNAc(b1-3)Gal(b1-4)GlcNAc
# Method in brief: as §1
# [30] = target: Fuc(a1-2)Gal(b1-4)GlcNAc(b1-3)Gal(b1-4)GlcNAc(b1-2)Man(a1-3)[Fuc(a1-2)Gal(b1-4)GlcNAc(b1-3)Gal(b1-4)GlcNAc(b1-2)Man(a1-6)]Man(b1-4)GlcNAc(b1-4)GlcNAc
# Method in brief: as §1
binder,measurement,setting,value
B1,glycan array binding signal (z-score),[1],-0.386
same,glycan array binding signal (z-score),[2],-0.356
same,glycan array binding signal (z-score),[3],-0.349
same,glycan array binding signal (z-score),[4],-0.371
same,glycan array binding signal (z-score),[5],-0.348
same,glycan array binding signal (z-score),[6],-0.386
same,glycan array binding signal (z-score),[7],-0.067
same,glycan array binding signal (z-score),[8],-0.307
same,glycan array binding signal (z-score),[9],-0.304
same,glycan array binding signal (z-score),[10],0.037
same,glycan array binding signal (z-score),[11],-0.288
same,glycan array binding signal (z-score),[12],-0.362
same,glycan array binding signal (z-score),[13],5.33
same,glycan array binding signal (z-score),[14],-0.1
same,glycan array binding signal (z-score),[15],-0.206
same,glycan array binding signal (z-score),[16],0.003
same,glycan array binding signal (z-score),[17],-0.374
same,glycan array binding signal (z-score),[18],0.553
same,glycan array binding signal (z-score),[19],-0.301
same,glycan array binding signal (z-score),[20],-0.343
same,glycan array binding signal (z-score),[21],-0.384
same,glycan array binding signal (z-score),[22],-0.376
same,glycan array binding signal (z-score),[23],-0.325
same,glycan array binding signal (z-score),[24],-0.37
same,glycan array binding signal (z-score),[25],-0.28
same,glycan array binding signal (z-score),[26],1.65
same,glycan array binding signal (z-score),[27],-0.32
same,glycan array binding signal (z-score),[28],-0.271
same,glycan array binding signal (z-score),[29],-0.404
same,glycan array binding signal (z-score),[30],-0.235

# Reference: the supplement of paper PMC8728848
